Assay results from PubChem BioAssay AID1240 (Sanford-Burnham Center for Chemical Genomics, 2008).
In all, about 50,000 compounds went through this assay and about 800 (1.6%) showed an effect of 50% or more. This is one part of the list.

Target: Bcl-2-like protein 10 (Homo sapiens) (UniProt Q9HD36)
Assay: TR3 peptide-Bcl-B binding displacers, biochemical primary FP assay, phenotype converters (AID 1240);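 further: 0% = Bcl-B with tracer peptide and DMSO and 100% = tracer peptide lacking Bcl-B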
Details: GST-Bcl-B / FITC-TR3 peptide fluorescence polarization; stronger effect = higher value; compound at 3.75 mg/L

UniProt Q9HD36, sequence (Q9HD36 whole entry, looked up): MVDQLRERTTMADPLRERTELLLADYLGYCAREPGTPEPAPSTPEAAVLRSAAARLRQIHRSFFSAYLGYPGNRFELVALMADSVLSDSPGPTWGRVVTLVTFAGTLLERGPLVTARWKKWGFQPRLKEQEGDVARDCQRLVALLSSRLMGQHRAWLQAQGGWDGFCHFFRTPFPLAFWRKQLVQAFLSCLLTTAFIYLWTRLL

Compound | displacement
O=C1NC(=S)N(c2ccc(Cl)cc2)C(=O)/C1=C/c1ccc(Oc2ccc([N+](=O)[O-])cn2)cc1 | 4.4%
CCOc1ccc(C(=O)NCc2cccnc2)cc1Br | 0.7%
CC1CCC(N2CCN(C(=O)c3ccc([N+](=O)[O-])cc3)CC2)CC1 (stereo not drawn) | -7.5%
O=C(O)CCC(=O)NNc1nc(-c2ccccc2)c2cc(Br)ccc2n1 | -9.3%
CCOC(=O)C1=C(O)/C(=C/c2ccc(N(CC)CC)cc2)SC1=Nc1ccccc1 | -95.4%
CC(=O)N1c2ccc(N)cc2C(C)(c2ccccc2)CC1(C)C (stereo not drawn) | -6%
O=C(Nc1ccc(OC(F)(F)F)cc1)c1cc(I)ccc1Cl | 4.8%
COc1ccc(NC(=O)CSc2nc(C)cc(C)n2)cc1 | 5.2%
COc1ccc(CC(=O)Nc2sc3c(c2C(=O)Nc2ccccc2C)CCCCC3)cc1 | 1.9%
CC(C)(C)c1cc(Cn2cc3cc([N+](=O)[O-])ccc3n2)cc(C(C)(C)C)c1O | -14.3%
CCOc1cc(/C=C2\SC(N3CCCCCC3)=NC2=O)ccc1O | -16.7%
Cc1nnc(SCC(=O)NCC(=O)c2ccccc2)s1 | 0.6%
CN1C(=O)/C(=C/c2ccc3c(c2)OCO3)SC1=S | 80.3%
COC(=O)C1=C(C)NC2=C(C(=O)CC(C)(C)C2)C1c1ccccc1I (stereo not drawn) | 11.9%
COc1cc(/C=C2\C(=O)NC(=O)N(Cc3ccccc3)C2=O)ccc1OCC(N)=O | -3.6%
CCCCP(=O)(CCCC)CCP(=O)(CCCC)CCCC | -1.8%
COc1ccc(C(=O)Nc2ccc([N+](=O)[O-])cc2Cl)c(OC)c1 | 4.7%
Cc1cc(C)c2c(c1)NC(c1ccc([N+](=O)[O-])cc1)C1CC=CC21 (stereo not drawn) | 5.2%
COc1cc(C=C2C(=O)NC(=O)NC2=O)cc(Br)c1OCc1c(C)no[n+]1[O-] | 29.9%
CCOc1ccc(-c2csc(/C(C#N)=C\Nc3cc(OC)ccc3OC)n2)cc1 | 4.6%
COc1ccccc1-n1c(SCC(=O)Nc2ccccc2C)nc(O)cc1=O | -7.4%
O=C(CCCOc1ccc(Cl)cc1Cl)Nc1ccc([N+](=O)[O-])cc1Cl | -11.9%
CC1=C(C(=O)OC(C)C)C(c2cccc(F)c2)C2=C(CCCC2=O)N1 (stereo not drawn) | 7.9%

Compound | displacement
CC(=O)C1=C(N2CCOCC2)CC(C)(C)CC1=O | 4.9%
O=C(COc1ccccc1)NCC(=O)N/N=C/c1cccs1 | 3.7%
O=C(CC1Sc2ccccc2NC1=O)Nc1ccc(SC(F)(F)F)cc1 (stereo not drawn) | -13.2%
Cc1oc2c(CN3CCCC3)c(O)ccc2c(=O)c1-c1nc2ccccc2s1 | 12.7%
COc1ccc2c(c1)CC/C2=N\OC(=O)c1ccccc1OC | -6.4%
COc1ccc(CCNC(=O)C2CC(=O)N(c3ccc(Br)cc3)C2)cc1OC (stereo not drawn) | 5.1%
O=[N+]([O-])c1ccc(S(=O)(=O)Nc2ccc(Nc3ccccc3)cc2)cc1 | 1%
Cc1cc(C)c(OCCCCn2ccnc2)c(C)c1 | -2%
COc1ccc(NC(=O)c2ccc(-c3ccccc3)cc2)cc1 | -0.3%
CCSc1sc(CC)cc1CN1C(=O)c2ccccc2C1=O | -7.5%
O=c1c2c3c(sc2ncn1/N=C/c1cc([N+](=O)[O-])ccc1O)CCCC3 | 2.3%
COc1ccc(S(=O)(=O)N(CC(=O)Nc2cccc3ccccc23)c2ccc(C)cc2)cc1OC | 9.6%
Cc1cccc(OCCOc2ccc(/C=N/N3C(=O)CSC3=S)cc2)c1 | -2.6%
N#C/C(=C/c1ccc(I)o1)C(=O)Nc1ccc(Cl)c(Cl)c1 | -13%
CC(/C=C/c1ccco1)=N\Nc1nnc2c(n1)[nH]c1ccccc12 | 21.6%
COc1ccc(C(=O)NC(N2CCCCC2)C(Cl)(Cl)Cl)cc1OC (stereo not drawn) | -3.2%
Oc1ccc2ccccc2c1/C=N/Nc1nn[nH]n1 | -7.8%
O=[N+]([O-])c1ccc(S(=O)(=O)NCCc2nc3ccccc3[nH]2)cc1 | 13.7%
CC(=O)Nc1ccc(S(=O)(=O)n2nc(C)c(Sc3ccccc3)c2C)cc1 | 8.9%
COc1cc(C)c(/C(C)=N\Nc2nc(C)c(C(C)=O)s2)cc1OC | -5.1%
COc1ccc(Br)cc1CN1CCN(C(=O)CC(C)C)CC1 | -29.1%
O=C(Nc1ccc(S(=O)(=O)N2CCc3ccccc32)cc1)c1ccccc1[N+](=O)[O-] | 7.1%
CCOC(=O)N1N=C(c2ccc(F)cc2)CC1(O)C(F)(F)F (stereo not drawn) | 5%

Compound | displacement
COCCCNC(=O)COc1ccc(Cl)cc1C | -5.9%
COc1cc(NC(=O)c2ccc(Cl)c([N+](=O)[O-])c2)ccc1NC(=O)c1ccco1 | -1.2%
CCOc1cc(/C=C2\C(=O)N(c3ccc(S(N)(=O)=O)cc3)N=C2C)cc(Cl)c1O | -84.7%
O=C(CN(c1cccc(Cl)c1)S(=O)(=O)c1ccccc1)Nc1ccc2ccccc2c1 | 12.2%
NS(=O)(=O)c1ccc(-c2ccc(/C=c3/sc4nc5ccccc5n4c3=O)o2)cc1 | 48.2%
CC(C)COc1ccc2[nH]c3c(c2c1)CCCC3=O | 12.2%
Cc1cccc(N2CCN(C(=S)c3ccc(N(C)C)cc3)CC2)c1 | 9%
CCCc1cc(C(=O)OC)c(NC(=O)C2C3CCC(C3)C2C(=O)O)s1 (stereo not drawn) | -9%
O=[N+]([O-])c1ccc(N2CCCC2)cc1NCCOc1ccc(Cl)cc1 | 10.6%
Cc1cc(Cl)ccc1OCCCC(=O)Nc1ccc2c(c1)OCCO2 | -0.6%
CS/C(N)=N/N=C/c1cc(C)ccc1O | -10.8%
Cc1cc(C=O)c(C)n1-c1ccc(Sc2ccc([N+](=O)[O-])cc2)cc1 | -10.4%
COc1ccc(/C=C/C(=O)c2c(-c3ccccc3)c3cc(Br)ccc3[nH]c2=O)cc1 | 3%
Cc1nnc(N/N=C/c2c(O)ccc3ccccc23)n1N | 0.3%
COc1ccc(/C(C)=N/NC(=O)c2n[nH]c3c2CCCC3)cc1OC | -6%
COc1ccccc1N=Cc1c(O)n(-c2ccc(F)cc2)c(=O)[nH]c1=O | -24.6%
CS(=O)(=O)N(CC(=O)Nc1ccc(I)cc1)c1cccc(Cl)c1 | 13.1%
O=[N+]([O-])c1cc(C(F)(F)F)ccc1-n1nnc2ccccc21 | 10.9%
CCCOc1ccc(/C=C/C(=O)Nc2ccc(S(=O)(=O)Nc3ncccn3)cc2)cc1OC | 12.9%
O=C(Nc1c[nH]c(=O)[nH]c1=O)c1cccc(Br)c1 | 13.8%
O=S(=O)(Nc1ccc(Cl)c(Cl)c1)c1ccc2ccccc2c1 | 3.4%
CC(C)(C)c1cc(N2C(=O)C(=O)/C(=C(/O)c3ccc(Cl)cc3)C2c2ccc([N+](=O)[O-])cc2)no1 (stereo not drawn) | -57.1%
